Each structure is given as a SMILES string. The whole screen tested about 310,000 compounds, of which about 14,000 (4.5%) showed an effect of 50% or more. The effect is printed as a negative number. This is one part of the list.
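Further: peak tail current of the secondary pulse compared with the same well before compound.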

This test deals with human ether-à-go-go-related gene (hERG) potassium channel (human, UniProt Q12809). The experiment in a line: primary screen, population patch clamp on CHO cells stably expressing hERG.
Chain of human ether-à-go-go-related gene (hERG) potassium channel (Q12809 whole entry, looked up): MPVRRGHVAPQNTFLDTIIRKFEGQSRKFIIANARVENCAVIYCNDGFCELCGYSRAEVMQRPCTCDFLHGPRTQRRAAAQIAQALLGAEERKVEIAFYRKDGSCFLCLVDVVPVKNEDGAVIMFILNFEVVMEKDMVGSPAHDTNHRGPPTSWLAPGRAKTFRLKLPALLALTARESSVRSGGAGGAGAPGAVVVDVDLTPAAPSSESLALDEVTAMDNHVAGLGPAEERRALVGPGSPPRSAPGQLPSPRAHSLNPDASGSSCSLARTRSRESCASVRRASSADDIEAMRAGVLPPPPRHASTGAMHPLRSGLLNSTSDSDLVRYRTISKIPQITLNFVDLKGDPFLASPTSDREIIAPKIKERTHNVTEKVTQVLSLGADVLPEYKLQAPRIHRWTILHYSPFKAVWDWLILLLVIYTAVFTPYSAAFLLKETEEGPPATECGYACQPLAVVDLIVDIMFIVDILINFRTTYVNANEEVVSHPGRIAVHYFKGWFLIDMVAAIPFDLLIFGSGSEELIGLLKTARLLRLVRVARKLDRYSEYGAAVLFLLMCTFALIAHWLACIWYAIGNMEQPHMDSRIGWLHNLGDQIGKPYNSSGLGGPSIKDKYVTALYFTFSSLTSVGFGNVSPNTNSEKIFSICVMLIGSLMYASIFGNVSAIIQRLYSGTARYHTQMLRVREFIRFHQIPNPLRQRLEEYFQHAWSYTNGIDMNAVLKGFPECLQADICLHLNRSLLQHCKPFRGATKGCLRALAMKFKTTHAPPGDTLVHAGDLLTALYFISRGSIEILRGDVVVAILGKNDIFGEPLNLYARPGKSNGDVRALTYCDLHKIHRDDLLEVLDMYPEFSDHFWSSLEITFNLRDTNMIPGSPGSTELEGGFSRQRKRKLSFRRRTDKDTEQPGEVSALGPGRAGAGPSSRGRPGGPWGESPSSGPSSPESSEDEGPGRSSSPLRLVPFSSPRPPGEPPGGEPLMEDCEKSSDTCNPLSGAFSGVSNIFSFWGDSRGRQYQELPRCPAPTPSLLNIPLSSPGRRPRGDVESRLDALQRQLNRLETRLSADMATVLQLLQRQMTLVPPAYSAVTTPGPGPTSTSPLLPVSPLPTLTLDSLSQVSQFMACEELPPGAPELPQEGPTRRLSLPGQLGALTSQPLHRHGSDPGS
On to `COc1ccc2nc(SCC(=O)Nc3ccccc3C#N)[nH]c2c1`, for which the “hERG current change (%, negative = inhibition) at 10uM” value is -4.87%. Under `O=C(c1cc2ccccc2[nH]1)N1CCOCC1` stands 1.56%; under `[O-]/[N+](=C\c1ccc(F)cc1)c1ccccc1`, 8.09%. On to `Cc1cc(S(=O)(=O)N2CCOCC2)ccc1OCC(=O)N1CCC(C)CC1`, for which the “hERG current change (%, negative = inhibition) at 10uM” value amounted to 6.4%. On to `CCOc1ccc(-c2nc(S(=O)(=O)c3ccccc3)c(N3CCC(C(N)=O)CC3)o2)cc1`, for which the “hERG current change (%, negative = inhibition) at 10uM” value is -23.7%. Then `O=C(NC(=S)Nc1ccccc1C(=O)O)c1ccc2ccccc2c1`, with 5.25%; and `CN1C(=S)SC(/[N+]([O-])=C\c2ccccc2)C1(C)C` (centres unmarked), with -15.4%. With `O=C(CSc1ccc(-c2ccccn2)nn1)Nc1ccc(F)cc1F`, the “hERG current change (%, negative = inhibition) at 10uM” value worked out at 2.47%. In the case of `CCOC(=O)c1c(S(=O)(=O)NCC(=O)Nc2ccc(F)cc2)c(C)n(C)c1C`, the “hERG current change (%, negative = inhibition) at 10uM” value amounted to 14.5%. `C=CCN1C(=O)c2ccc(C(=O)OCC(=O)N3CCN(c4ccccc4)CC3)cc2C1=O`: the “hERG current change (%, negative = inhibition) at 10uM” value stood at 7.02%. Turning to `CCOC(=O)c1cc(S(=O)(=O)Nc2ccc(F)cc2F)cn1C`, the “hERG current change (%, negative = inhibition) at 10uM” value stood at 0.0232%. Then `COc1ccc(S(=O)(=O)N(CCc2ccccc2)CC(=O)NC(C)C)cc1`, with -17.8%. Turning to `O=C(OCC#CCSc1nnc(-c2ccncc2)o1)c1cccs1`, the “hERG current change (%, negative = inhibition) at 10uM” value is -53.2%.

Consider `O=S(=O)(c1ccc2c(c1)OCCO2)N1CCN(c2nc3ccccc3s2)CC1`, for which the “hERG current change (%, negative = inhibition) at 10uM” value came to 6.93%. Regarding `CCCCn1c(SCC(=O)O)nc2ccccc21`, the “hERG current change (%, negative = inhibition) at 10uM” value turned out to be 15.2%. Turning to `CC(=O)N1CCN(C(=O)c2c(-c3ccccc3)noc2C)CC1`, the “hERG current change (%, negative = inhibition) at 10uM” value is -1.62%.

Take `Cc1ccc(C(=O)OCC(=O)N(CC(C)C)c2c(N)n(Cc3ccccc3)c(=O)[nH]c2=O)cc1[N+](=O)[O-]`: the “hERG current change (%, negative = inhibition) at 10uM” value was 9.14%.

Consider `COc1cc(NC(=O)c2c(F)cccc2F)c(Cl)cc1Cl`, for which the “hERG current change (%, negative = inhibition) at 10uM” value worked out at 15.8%. `COc1ccc(N(CC(=O)NCc2ccc(Cl)cc2)S(=O)(=O)c2c(C)n[nH]c2C)cc1`: the “hERG current change (%, negative = inhibition) at 10uM” value is -57.4%. Take `CCN(C(=O)CSc1cc(C)c2ccc(OC)cc2n1)C1CCS(=O)(=O)C1` (centres unmarked): the “hERG current change (%, negative = inhibition) at 10uM” value is on record as -11.7%. Regarding `COc1ccc(S(=O)(=O)N2CCC(C(=O)Oc3cccc(C)c3)CC2)cc1OC`, the “hERG current change (%, negative = inhibition) at 10uM” value was determined as 19.1%. With `COc1ccccc1C(=O)Nc1ccc2oc(-c3ccc(F)cc3)nc2c1`, the “hERG current change (%, negative = inhibition) at 10uM” value came out at 3.72%.

In the case of `OCC1(Cc2ccccc2Cl)CCN(C/C=C/c2ccccc2)CC1`, the “hERG current change (%, negative = inhibition) at 10uM” value was -68.4%. Regarding `CCCCCCC(=O)Nc1cc2c(C)cc(=O)oc2cc1C`, the “hERG current change (%, negative = inhibition) at 10uM” value was -22.8%. Take `CCOC(=O)c1cc(C#N)c(SCC(N)=O)[nH]c1=O`: the “hERG current change (%, negative = inhibition) at 10uM” value is reported as 4.81%.

As for `Cc1ccc(NC(=O)CSc2nnc(-c3cnccn3)n2Cc2ccco2)cc1`, the “hERG current change (%, negative = inhibition) at 10uM” value was -21.3%.

Regarding `COc1cc(/C=N/NC(=O)c2ccncc2)ccc1OCC(=O)Nc1ccccc1`, the “hERG current change (%, negative = inhibition) at 10uM” value is -27%. Under `COc1ccc(S(=O)(=O)n2nc(C)cc2C)c(C)c1C` stands -8.7%; under `O=[N+]([O-])c1ccc(C23CC4CC(CC(O)(C4)C2)C3)cc1`, -37.8%. Turning to `CCCCOP(=O)(c1ccc(N(C)C)cc1)C(O)c1cccnc1` (centres unmarked), the “hERG current change (%, negative = inhibition) at 10uM” value is -4.93%. Turning to `CCOc1ccccc1NC(=O)NNC(=O)CCc1ccc(OC)cc1`, the “hERG current change (%, negative = inhibition) at 10uM” value is recorded as 7.08%. As to `CCCS(=O)(=O)c1c(S(=O)(=O)CCC)c2ccc(C(N)=O)cn2c1C(=O)OC`, the “hERG current change (%, negative = inhibition) at 10uM” value is recorded as -3.5%. Turning to `O=C(CCc1nnc(CCCCc2ccccc2)o1)NC(c1cccnc1)C(F)(F)F` (centres unmarked), the “hERG current change (%, negative = inhibition) at 10uM” value is on record as -7.6%.

As to `CC(C)(C)OC(=O)CNC(=O)c1[nH]cnc1C(=O)N[C@@H](CCCCNC(=O)OC(C)(C)C)C(=O)OC(C)(C)C`, the “hERG current change (%, negative = inhibition) at 10uM” value was 3.6%. In the case of `COc1cccc(OC)c1C(=O)NCCSC1CCCCC1`, the “hERG current change (%, negative = inhibition) at 10uM” value worked out at 7.03%.

In the case of `Cc1cc(C)n2nc(SCC(=O)Nc3ccccc3)nc2n1`, the “hERG current change (%, negative = inhibition) at 10uM” value is given as -4.16%. Then `CCOc1cccc(-c2cc(=O)[nH][nH]2)c1`, with 1.58%; and `O=C(O)CCCC(=O)NCCCc1ccccc1`, with 1.48%. Consider `Cc1ccc(CNC(=O)c2ccc(N3CCc4ccccc43)c([N+](=O)[O-])c2)cc1`, for which the “hERG current change (%, negative = inhibition) at 10uM” value was determined as 3.31%.

Consider `Cc1ccc(N2C(=O)N(CC(=O)N3CCOCC3)C(=O)C2C)cc1` (centres unmarked), for which the “hERG current change (%, negative = inhibition) at 10uM” value was -0.596%. Regarding `O=C(O)CNS(=O)(=O)c1ccc2c(c1)CCCC2`, the “hERG current change (%, negative = inhibition) at 10uM” value is listed as 8.7%. Under `NS(=O)(=O)c1cccc(NC(=O)COC(=O)CN2C(=O)c3ccccc3C2=O)c1` stands -12.2%; under `CCc1noc(C)c1C(=O)Nc1nc(-c2cccs2)cs1`, -57%. Turning to `O=C(NCCc1c[nH]c2ccccc12)C(=O)NCC1OCCCN1S(=O)(=O)c1ccc(F)cc1` (centres unmarked), the “hERG current change (%, negative = inhibition) at 10uM” value turned out to be 18.4%.

Values taken from publication PMC4336329 (PLoS ONE, 2015).
